Data: PubChem BioAssay (NCATS)
The shares of active, inactive and inconclusive entries below differ from those in the screen. No potency is given beside an inconclusive call; the fits are too rough. Activity calls are given as the source filed them. Calls come from the whole dose curve; as a rule, active = well fitted inhibition curve with a large enough effect; inconclusive = small, poorly fitted or top-dose-only effect; inactive = flat fitted curve, though single readings scatter.
Potency is the fitted concentration of half-maximal effect; tags give direction and shape of the fitted curve.

Test: BET inhibitor-based combinations targeting novel dependencies in MECOM-rearranged (r) AML: AML-191 cell line (AID 2202236; note: nearly all actives have a fitted effect of over 35% in size;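 for viability (% of control): plate controls were vehicle wells for no effect and wells without cells for full effect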)
Conditions: AML-191 viability, CellTiter-Glo luminescence, 48 h; series mostly up to 46 µM; viability (% of control): at the top concentration
How it was run: (§1)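 Readout: CellTiter-Glo luminescence. Exposure: 48 h, 11 concentrations, 500 cells/well. Metric: AUC and within-line Z-AUC after DMSO/empty-well normalization.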
For `Cn1c(CNc2ccc(C(=N)N)cc2)nc2cc(C(=O)N(CCC(=O)O)c3ccccn3)ccc21`, the viability (% of control) was inactive: 101% [at 0.315 µM]. With `C[C@@H]1CCN(C(=O)N2CCCC2)C[C@@H]1N(C)c1ncnc2[nH]ccc12` the Potency was inconclusive [inhibitor, partial curve]. For `CCCN1CCN(c2ccc(C(=O)NC3(C(=O)NCC#N)CCCCC3)cc2)CC1`, the “viability (% of control)” value was inactive: 104%. For `CN(C[C@@H]1COCCO1)S(=O)(=O)Nc1ccc2ccc3ncc(-c4cnn(C)c4)cc3c(=O)c2c1`, the Potency was active: 6.61 µM. With `Cc1cc(Nc2nc(N[C@@H](C)c3ccc(F)cc3)c(C#N)cc2F)n[nH]1` the Potency was active: 0.105 µM. With `Nc1ccn(C2CO[C@H](CO)O2)c(=O)n1` (stereo not given in full) the “viability (% of control)” value was inactive: 103%. For `COCCNCCCn1c(C(=O)CF)c(-c2ccc(C)cc2)c2c(N)ncnc21`, the Potency was inconclusive [inhibitor, partial curve, poor fit]. With `Nc1nccn2c(C3CCC(C(=O)O)CC3)nc(-c3cc4cccc(Cl)c4[nH]3)c12` (stereo not given) the Potency was inconclusive [inhibitor, full curve]. For `Oc1cc(-c2nc(-c3ccccc3)[nH]c2-c2ccncc2)ccc1Cl`, the Potency was inconclusive [inhibitor, partial curve]. For `COc1cc2ncnc(Nc3cc(Br)c(O)c(Br)c3)c2cc1OC`, the Potency was inconclusive [inhibitor, partial curve]. In the case of `COc1ccc(-c2cc(C(O)C3CCCCN3)c3ccccc3n2)cc1` (stereo not given), the Potency is reported as active: 14.8 µM. In the case of `Clc1ccc(C(Cn2ccnc2)OCc2c(Cl)cccc2Cl)c(Cl)c1` (stereo not given), the Potency is reported as inconclusive [inhibitor, partial curve].

Test: BET inhibitor-based combinations targeting novel dependencies in MECOM-rearranged (r) AML: AML-194 cell line (AID 2202237; note: nearly all actives have a fitted effect of over 40% in size;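 for viability (% of control): plate controls were vehicle wells for no effect and wells without cells for full effect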)
Conditions: AML-194 (MECOM-r AML) viability, CellTiter-Glo, 48 h; series mostly up to 46 µM; viability (% of control): at the top concentration
How it was run: as §1
In the case of `CNC(=O)c1cc(Oc2ccc3nc(N[C@@H]4CCCC[C@H]4O)sc3c2)ccn1`, the “viability (% of control)” value is reported as inactive: 87.7%. With `CNC(=O)c1cc(Oc2ccc(NC(=O)Nc3ccc(Cl)c(C(F)(F)F)c3)cc2)ccn1` the Potency was active: 16.6 µM. In the case of `C[C@@H]1CCN(C(=O)N2CCCC2)C[C@@H]1N(C)c1ncnc2[nH]ccc12`, the Potency is reported as inconclusive [inhibitor, single point]. In the case of `Cc1coc2c1C(=O)C(=O)c1c-2ccc2c1CCCC2(C)C`, the “viability (% of control)” value is reported as inactive: 96.4%. In the case of `CN(C[C@@H]1COCCO1)S(=O)(=O)Nc1ccc2ccc3ncc(-c4cnn(C)c4)cc3c(=O)c2c1`, the Potency is reported as inconclusive [inhibitor, partial curve, poor fit]. With `Cc1cc(Nc2nc(N[C@@H](C)c3ccc(F)cc3)c(C#N)cc2F)n[nH]1` the Potency was active: 0.166 µM. With `COCCNCCCn1c(C(=O)CF)c(-c2ccc(C)cc2)c2c(N)ncnc21` the “viability (% of control)” value was inactive: 109%. With `Nc1nccn2c(C3CCC(C(=O)O)CC3)nc(-c3cc4cccc(Cl)c4[nH]3)c12` (stereo not given) the Potency was inconclusive [inhibitor, full curve]. With `Oc1cc(-c2nc(-c3ccccc3)[nH]c2-c2ccncc2)ccc1Cl` the Potency was inconclusive [inhibitor, partial curve]. In the case of `COc1cc2ncnc(Nc3cc(Br)c(O)c(Br)c3)c2cc1OC`, the Potency is reported as inconclusive [inhibitor, single point]. With `CN(C)c1ccc(Nc2nc(N)n(C(=O)c3c(F)cccc3F)n2)cc1` the Potency was inconclusive [inhibitor, partial curve]. For `Cc1nc(Nc2n[nH]c3c2CN(C(=O)N[C@H](CN(C)C)c2ccccc2)C3(C)C)c2sccc2n1`, the Potency was active: 1.66 µM. For `Cn1ncc(Cl)c1-c1cc(C(=O)NC(CN)Cc2ccc(F)c(F)c2)oc1Cl` (stereo not given), the Potency was active: 18.6 µM.
